# Assay results as given in PubChem BioAssay AID463173 (ICCB-Longwood Screening Facility, Harvard Medical School, 2010).
# The campaign covered roughly 52,000 compounds. About 4,300 (8.3%) were called active. Rule as the data show it: active = survival mostly below about 52% (no sharp cut-off); inactive = mostly above about 56%. Some of the results follow.
# Test system: DeltatarO mutant
# Experiment: growth inhibition of S. aureus wild type versus tarO mutant, primary screen, teichoic acid synthesis inhibitors, RN4220, OD600 (AID 463173)
# Settings: OD600, 18 h, active compounds read low, screened at 18.75 µg/mL (by protocol)
row,Structure (SMILES),survival
1,CC(=O)Nc1ccc(I)cc1C(=O)O,inactive: 95%
2,Cc1ccc(CNc2nnc(C)c3nnn(Cc4ccc(F)cc4)c23)cc1,inactive: 75%
3,COc1cc(NC(=O)Cn2c(=O)cc(C)c3c(C)nn(-c4ccc(C)cc4)c32)cc(OC)c1,inactive: 97%
4,CC(=O)N1c2ccc(S(=O)(=O)N3CCCCCC3)cc2CC1C(=O)NCc1cccc(C)c1 (stereo not given),inactive: 88%
5,CCOc1ccc(-c2cc3nc(C4CCN(C(=O)OC(C)(C)C)CC4)c(C(=O)Nc4cccc(CC)c4)cn3n2)cc1,inactive: 64%
6,Fc1ccc(NCc2ccccc2-c2nnc(-c3ccccc3Cl)o2)cc1,inactive: 88%
7,O=C(NCCc1csc(-c2cccnc2)n1)c1cccc(Cl)c1,inactive: 54%
8,CCOc1ccc(CC(=O)NCCc2sc3nc(-c4ccc(F)cc4)nn3c2C)cc1,inactive: 79%
9,Cc1ccc2ncc(C(=O)c3ccc(C)c(C)c3)c(S(=O)(=O)c3ccc(F)cc3)c2c1,inactive: 81%
10,Cc1ccccc1Cn1c(SCc2ccc(C(=O)NC3CCCCC3)cc2)nc2ccncc21,inactive: 83%
11,COc1ccc(C)cc1C(=O)CCC(=O)O,inactive: 103%
12,Cc1nc(SCc2cccc(Cl)c2)nc2c1CCCC2,active: -2%
13,CC(C)N(Cc1nc(-c2ccc(Cl)cc2)no1)C(=O)c1ccc(C(C)(C)C)cc1,active: -1%
14,Cc1cc(SCC(N)=O)nc2ccccc12,inactive: 96%
15,CCc1ccc(NC(=O)CSc2nccn2-c2ccc(F)cc2)cc1,inactive: 107%
16,COc1ccc(N2CC(NC(=O)/C=C\c3ccc4c(c3)OCO4)CC2=O)cc1OC (stereo not given),inactive: 85%
17,CCSc1nc2n(n1)C(c1ccc(Cl)cc1Cl)C(C(=O)Nc1ccccc1C)=C(C)N2 (stereo not given),inactive: 67%
18,CC(C)(C)c1ccc(-c2nc(NC(=O)CSc3ncnc4sc5c(c34)CCCC5)ns2)cc1,active: 57%
19,Cc1ccc(-n2ccn(CC(=O)NCCc3ccccc3)c(=O)c2=O)cc1C,inactive: 56%
20,CCCCOc1ccc(C(=O)N(Cc2ccc(N(C)C)cc2)Cc2ccco2)cc1,inactive: 66%
21,Cc1ccc(-n2ncc3c(NCc4ccccc4)ncnc32)cc1Cl,active: -4%
22,CCC(=O)C1=C(c2ccc(F)cc2)N(C(=O)CC)n2cnnc2S1,inactive: 128%
23,Cc1ccccc1CN1C(=O)c2ccccc2S(=O)c2ccc(C(=O)NCc3ccc(Cl)cc3)cc21 (stereo not given),inactive: 83%
24,CCc1ccccc1NC(=O)CN(c1ccccc1)S(=O)(=O)c1ccsc1C(=O)OC,inactive: 119%
25,O=C(NCc1ccc2c(c1)OCO2)c1ccc2c(c1)N(Cc1ccccc1F)C(=O)c1ccccc1S2,inactive: 88%
